Experimental data: the supplement of paper PMC11417369
The other results are listed elsewhere or left out.

system: PfSIP2 AP2 domain 1 (GST-tagged); assay: gcPBM binding intensity (ln(normalized median fluorescence intensity)); higher = stronger DNA binding
Procedure, shortened: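 Plasmodium falciparum DNA-binding domains carrying a GST tag were expressed in E. coli and applied for 1 h, at about 25 μg on average, to an Agilent 4 × 180k array. The array held primer-extended double-stranded 36-bp intergenic genomic probes together with negative controls, and binding took place in 1× PBS with 1% milk, 0.2 mg/ml BSA, 0.5% salmon testes DNA and 0.03% Triton X-100. An Alexa488 anti-GST antibody detected bound protein, and the array was scanned at 488 nm. Binding intensity is taken as the highest Masliner-normalised natural-log median intensity across replicate spots of either probe orientation.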

| Sequence | gcPBM binding intensity (ln) |
| --- | --- |
| CACAAAAATAGACACACACACATATAAATAAATATA [CACACA_site6598] | 7.11 |
| ATATATATATATATATGTACACATATTATAAAAAAA [XGTACX_site8644] | 9.2 |
| TATATATATAAATACACACACACCGTCCGTGTTAAA [CACACA_site5623] | 7.91 |
| ATATATATTATATAGTGTACCTATGTATAATAATAT [XGTACX_site1683] | 7.16 |
| ATATATTATAATGATACACACAAGAAATAAAATTAC [CACACA_site3095] | 7.12 |
| TTCTAGAAAACTGATCGTACAAATAAATATAGACAC [XGTACX_site2808] | 7.73 |
| TATAAAATAAAAGTAAATATATATATATATATATAT [TGCATGCA_negctrl_site208] | 9.31 |
| AAAATAGGGATCACGTGTACATATAAAGTGACATAC [XGTACX_site8190] | 7.37 |
| AATGCATACACATATTGTACTAAGCCATACAACACA [XGTACX_site305] | 7.04 |
| ATATATAATATTTATTGTACTATTTTATTTTTATAA [XGTACX_site705] | 7.07 |
| TTTGACATACCTCTTGCATGTGAAAAACTTTTCGCT [TGCATGCA_site364] | 6.69 |
| AAAAAAGACCATGTTAGTACATAAGATTTTTTTCAT [XGTACX_site4298] | 6.77 |
| AATACGTTATTATTTTGTACATATAAATAATAAGTT [XGTACX_site815] | 6.87 |
| ATTTCTATTTGGGTTAGTACATATAAGTCTATTTTC [XGTACX_site3234] | 7.08 |
| AACATACGAATATTCACACATAAATATATAAATCGC [CACACA_site4672] | 7.04 |
| ACTCTTTTAACGCAAAGTACTTTTTAAAATATTTCG [XGTACX_site7534] | 7.47 |
| TATTATATATATATCACACATATATTCATGTACATA [CACACA_site5432] | 7.24 |
| TTTTTTTTTTCTTTTTGTACATATTCATAACAAGTA [XGTACX_site2784] | 6.83 |
| TATATAATCGAGTGCACACACAAAAAAAAAGTGAAC [CACACA_site1483] | 10.8 |

| Sequence | gcPBM binding intensity (ln) |
| --- | --- |
| TTAAAAAGATGTCACTGTACATAAAACATAAAATAT [XGTACX_site2886] | 7.14 |
| TAAACAGACATATAAACACACATACATACATACATA [CACACA_site7215] | 7.14 |
| TTTCATGACAATGTTTGTACATAATAAAATATATTT [XGTACX_site7039] | 7.02 |
| GAAGAGACTTAGAAAACACACATACATAAGATAATT [CACACA_site5333] | 6.8 |
| AAAAAAAAAAAAAAAACACACATAAAACTATAATAA [CACACA_site7758] | 7.62 |
| ATATGTATCTCATCGTGTACATGTATATAATATATA [XGTACX_site4139] | 7.13 |
| ATATAGTAAAGTTATACACACATGAATTTTCCCATG [CACACA_site6923] | 6.7 |
| TTAGAAAAATTATATATACACACTTATATTTATATA [CACACA_site2821] | 6.62 |
| ATATATCAAAATAATTGTACAAATTTTATATAATTT [XGTACX_site7249] | 6.96 |
| AATATAAATGTGATTACACACAACACATTTAAATGT [CACACA_site1212] | 6.79 |
| GTCATATATAATTGTTGTACATTTTTATAATTATGT [XGTACX_site8091] | 7.21 |
| AATTTTCTTAAAATTTGTACGTATATATTTAATATA [XGTACX_site3906] | 7.09 |
| TATATATACTATAACACACATACACCCAAAAAAAAA [CACACA_site536] | 7.29 |
| AAAAAATTATATTATGCACACATCGTTATATATATA [CACACA_site1201] | 8.28 |
| CTTATACATATATATAGTACATATATCATTTTTATG [XGTACX_site4462] | 7.21 |
| AAAAATAAATTTATATATTACAAGAACAAATATAGT [XGTACX_negctrl_site567] | 7.35 |
| GAATAAATAAGATACGTACACACATATACAAAATAT [CACACA_site3660] | 7.22 |
| AAAAGGAAAGGAAAGGGTACAATCCTATTATATTAT [XGTACX_site8652] | 6.7 |
| ATAATATAAACGTATACACACAAGAGAAGCATAAAG [CACACA_site2889] | 7.27 |

| Sequence | gcPBM binding intensity (ln) |
| --- | --- |
| TTTTTTTAAAAAAAGGGTACATATATATATTTTTCT [XGTACX_site1066] | 7.07 |
| GTATTACATGAGGACACACACAAAAAAAATATATAT [CACACA_site769] | 7.26 |
| TAATTATTTTAAAAAGTGCATTAAAAGATATTAAAT [GTGCAC_site9694] | 8.22 |
| TTATTATAAAAATGTAGTACAATACTTTTTTTTTTT [XGTACX_site732] | 7.2 |
| TATATATCTATAAACACACACCAAAATTTGTGCTTT [CACACA_site7448] | 7.09 |
| AAATAAAAAGAAAAGAAAAAGAAAATAAAAAGAGAA [XGTACX_negctrl_site14] | 6.6 |
| ATAAAATGAACAAACACACACACATATATTTATATA [CACACA_site7181] | 6.88 |
| ATATATATATATTATATGCACACGTTAAAATTTCAT [CACACA_site709] | 8.78 |
| ATATACTTTAAAGGTTAAGAAAGAAAAAAAAAAAAA [CACACA_negctrl_site956] | 6.97 |
| ACATTATATTTGGACTGTACTAATATATTGTTATAT [XGTACX_site5573] | 7.23 |
| TATACATATATATATTGTACATATTATATATATATA [XGTACX_site3286] | 8.98 |
| ATATATATATATATATGTACATATTGTATCTTATAC [XGTACX_site5466] | 9.35 |
| TTATATTTAGTATATGCACACTTTATGTTTGTTATT [CACACA_site5163] | 7.74 |
| TATAAATACGAACACACACACCTTATAATTACTACT [CACACA_site7827] | 6.98 |
| AAGAAAGGTTAAACATGTACATAAATATTTTACATA [XGTACX_site5024] | 7 |
| AAAAACCATTGGCACACACACATAATATATAATATA [CACACA_site4903] | 7.09 |
| TATCTTTTTATTTTTTATTTTTTTTTTATAATTTAC [XGTACX_negctrl_site414] | 6.81 |
| ACACATATGTCTTCATGTACATAATATATAAATCTT [XGTACX_site3438] | 7.26 |
